Measured values as given in a collection of fitness landscapes (doi:10.1016/j.celrep.2020.107928).
The full ranking holds about 81,000 sequences; the median of “one-hybrid fitness for binding parS DNA” is about -0.17, and the highest 2% start at about 0.51. Some of the results follow.

B1: Caulobacter ParB omega fusion; a variant is named by its letters at X, in order, B8GW30 (parent)
chain: MESVVVGEPGMSEGRRGLGRGLSALLGEVDAAPAQAPGEQLGGSREAPIEILQRNPDQPRRTFREEDLEDLSNSIREKGVLQPILVRPSPDTAGEYQIVAGERAWRAAQRAGLKTVPIMVRELDDLAVLEIGIIENVQRADLNVLEEALSYKVLMEKFERTQENIAQTIGKSXSHVANXMRLLXLPDEVQSYLVSGELTAXHARAIAAAADPVALAKQIIEGGLSVRETEALARKAPNLSAGKSKGGRPPRVKDTDTQALESDLSSVLGLDVSIDHRGSTGTLTITYATLEQLDDLCNRLTRGI

Variants of: B1
Experiment: one-hybrid fitness for binding parS DNA (scaled: cognate 1, non-cognate 0); higher = stronger binding
Conditions: with parS DNA site
In short: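 Bacterial one-hybrid selection in E. coli USO rpoZ- hisB- pyrF- with a HIS3 reporter carrying the site 19 bp from the promoter, screening Caulobacter ParB libraries with four specificity codons randomised (NNS). Cells grew 48 hours at 37°C on M9-minus-histidine plus 0.1 mM IPTG and 5 mM 3-AT. Plasmids before and after selection were Illumina-sequenced, three replicate libraries pooled, and variants under 10 reads dropped. Fitness is the log change in variant-to-wild-type read ratio, rescaled to cognate 1, non-cognate 0.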

Row | Variant | one-hybrid fitness for binding parS DNA
1 | WKAC | ≤ 0.2
2 | GHIG | ≤ 0.2
3 | RNGA | 0.496
4 | AYTY | ≤ 0.2
5 | WGKE | ≤ 0.2
6 | QEMI | ≤ 0.2
7 | KTIL | ≤ 0.2
8 | SLCG | ≤ 0.2
9 | TAEI | ≤ 0.2
10 | NPHS | ≤ 0.2
11 | SAFL | ≤ 0.2
12 | LRTG | ≤ 0.2
13 | LGYS | ≤ 0.2
14 | ESDF | ≤ 0.2
15 | KSRS | ≤ 0.2
16 | REIR | ≤ 0.2
17 | QPPE | ≤ 0.2
18 | NTDT | ≤ 0.2
19 | PKQF | ≤ 0.2
20 | RRHT | 0.593
21 | KLTR | ≤ 0.2
22 | PHMK | ≤ 0.2
23 | QNSP | ≤ 0.2
24 | QDCW | ≤ 0.2

Row | Variant | one-hybrid fitness for binding parS DNA
25 | YCKA | ≤ 0.2
26 | GKIR | ≤ 0.2
27 | LKKN | ≤ 0.2
28 | WDHG | ≤ 0.2
29 | SPKG | ≤ 0.2
30 | LAQG | ≤ 0.2
31 | NRGC | ≤ 0.2
32 | YEVG | ≤ 0.2
33 | GVTP | ≤ 0.2
34 | VKHP | ≤ 0.2
35 | IRLV | ≤ 0.2
36 | THDM | ≤ 0.2
37 | LYHL | ≤ 0.2
38 | EPKM | ≤ 0.2
39 | KNSA | ≤ 0.2
40 | DYDI | ≤ 0.2
41 | KNHS | ≤ 0.2
42 | LVLL | ≤ 0.2
43 | TFVG | ≤ 0.2
44 | TDFR | ≤ 0.2
45 | PNRD | ≤ 0.2
46 | TPGY | ≤ 0.2
47 | ISAR | ≤ 0.2
48 | MLHR | ≤ 0.2

Row | Variant | one-hybrid fitness for binding parS DNA
49 | EVHL | ≤ 0.2
50 | YIFT | ≤ 0.2
51 | QYHC | ≤ 0.2
52 | RPKY | ≤ 0.2
53 | DVKA | ≤ 0.2
54 | RTQD | 0.202
55 | HAHR | ≤ 0.2
56 | KHYN | ≤ 0.2
57 | TSYD | ≤ 0.2
58 | DHGF | ≤ 0.2
59 | ALQR | ≤ 0.2
60 | HSFF | ≤ 0.2
61 | RSVT | 0.707
62 | RVGW | 0.209
63 | EALN | ≤ 0.2
64 | TAPF | ≤ 0.2
65 | YSRR | ≤ 0.2
66 | QQPR | ≤ 0.2
67 | IPPN | ≤ 0.2
68 | QRAM | ≤ 0.2
69 | ANQN | ≤ 0.2
70 | QYRW | ≤ 0.2
71 | RDIE | ≤ 0.2
72 | WVLA | ≤ 0.2

Row | Variant | one-hybrid fitness for binding parS DNA
73 | NLNI | ≤ 0.2
74 | AKIK | ≤ 0.2
75 | EDTL | ≤ 0.2
76 | FSSS | ≤ 0.2
77 | KALN | ≤ 0.2
78 | LTFI | ≤ 0.2
79 | VAQR | ≤ 0.2
80 | ELKF | ≤ 0.2
81 | LFTG | ≤ 0.2
82 | PCQV | ≤ 0.2
83 | HWMG | ≤ 0.2
84 | NIEV | ≤ 0.2
85 | KDTT | ≤ 0.2
86 | HRNG | 0.239
87 | PVKR | ≤ 0.2
88 | HRVM | ≤ 0.2
89 | PYKI | ≤ 0.2
90 | GYLI | ≤ 0.2
91 | SCYW | ≤ 0.2
92 | LSSE | ≤ 0.2
93 | LYQL | ≤ 0.2
94 | HHIT | ≤ 0.2
95 | NSNL | ≤ 0.2
96 | EGCI | ≤ 0.2

Row | Variant | one-hybrid fitness for binding parS DNA
97 | ALAW | ≤ 0.2
98 | RECV | ≤ 0.2
99 | NDTL | ≤ 0.2
100 | HLKP | ≤ 0.2
101 | SSHM | ≤ 0.2
102 | AHPR | ≤ 0.2
103 | RHTW | ≤ 0.2
104 | LMNC | ≤ 0.2
105 | TSRI | ≤ 0.2
106 | HPWM | ≤ 0.2
107 | SSQN | ≤ 0.2
108 | LDFS | ≤ 0.2
109 | PTGR | ≤ 0.2
110 | EQYS | ≤ 0.2
111 | TSLS | ≤ 0.2
112 | SKHG | ≤ 0.2
113 | KLTD | ≤ 0.2
114 | ATFC | ≤ 0.2
115 | LGSR | ≤ 0.2
116 | STVY | ≤ 0.2
117 | CRAV | ≤ 0.2
118 | QVFL | ≤ 0.2
119 | VMLE | ≤ 0.2
120 | YIRT | ≤ 0.2

Row | Variant | one-hybrid fitness for binding parS DNA
121 | SPGF | ≤ 0.2
122 | TKLH | ≤ 0.2
123 | QHMV | ≤ 0.2
124 | PASP | ≤ 0.2
125 | NRTH | ≤ 0.2
126 | QADG | ≤ 0.2
127 | MFAL | ≤ 0.2
128 | HILG | ≤ 0.2
129 | LLGT | ≤ 0.2
130 | CFFL | ≤ 0.2
131 | NSVG | ≤ 0.2
132 | AYHI | ≤ 0.2
133 | RVYQ | ≤ 0.2
134 | IHLS | ≤ 0.2
135 | KHMS | ≤ 0.2
136 | IQPR | ≤ 0.2
137 | FCLW | ≤ 0.2
138 | EGLG | ≤ 0.2
139 | QRMH | ≤ 0.2
140 | TLEE | ≤ 0.2
141 | GLCL | ≤ 0.2
142 | DWNC | ≤ 0.2
143 | MPVQ | ≤ 0.2
144 | NNPK | ≤ 0.2

Row | Variant | one-hybrid fitness for binding parS DNA
145 | SRNS | ≤ 0.2
146 | RSPV | ≤ 0.2
147 | YRQE | ≤ 0.2
148 | REWR | ≤ 0.2
149 | DKDT | ≤ 0.2
150 | WRDG | ≤ 0.2
151 | RPER | ≤ 0.2
152 | HKIL | ≤ 0.2
153 | MHSD | ≤ 0.2
154 | GTTN | ≤ 0.2
155 | AYDV | ≤ 0.2
156 | ASMS | ≤ 0.2
157 | MREG | ≤ 0.2
158 | YAAY | ≤ 0.2
159 | VYIS | ≤ 0.2
160 | DDKT | ≤ 0.2
161 | NAAC | ≤ 0.2
162 | DPNR | ≤ 0.2
163 | YLIW | ≤ 0.2
164 | HLPK | ≤ 0.2
165 | KLRR | ≤ 0.2
166 | IRPR | ≤ 0.2
167 | ITGS | ≤ 0.2
168 | AIRT | ≤ 0.2

Row | Variant | one-hybrid fitness for binding parS DNA
169 | GCGL | ≤ 0.2
170 | DPTC | ≤ 0.2
171 | CVAQ | ≤ 0.2
172 | PRPY | ≤ 0.2
173 | HIRG | ≤ 0.2
174 | ENDG | ≤ 0.2
175 | PAKI | ≤ 0.2
176 | RKEW | ≤ 0.2
177 | AAQK | ≤ 0.2
178 | YLNT | ≤ 0.2
179 | VMTT | ≤ 0.2
180 | LCAT | ≤ 0.2
181 | TYEH | ≤ 0.2
182 | TPVM | ≤ 0.2
183 | RELS | 0.237
184 | NQWK | ≤ 0.2
185 | NCCR | ≤ 0.2
186 | HAHV | ≤ 0.2
187 | PICC | ≤ 0.2
188 | EHVL | ≤ 0.2
189 | QNCM | ≤ 0.2
190 | CLSR | ≤ 0.2
191 | IGGS | ≤ 0.2
192 | DRGT | ≤ 0.2

Row | Variant | one-hybrid fitness for binding parS DNA
193 | STHC | ≤ 0.2
194 | VAQV | ≤ 0.2
195 | IMNC | ≤ 0.2
196 | ADRK | ≤ 0.2
197 | EFDG | ≤ 0.2
198 | PIGV | ≤ 0.2
199 | VMTW | ≤ 0.2
200 | MRLY | ≤ 0.2
201 | HHEK | ≤ 0.2
202 | GGYS | ≤ 0.2
203 | LAKC | ≤ 0.2
204 | KESY | ≤ 0.2
205 | VQNV | ≤ 0.2
206 | SLAT | ≤ 0.2
207 | IPDC | ≤ 0.2
208 | SRTR | ≤ 0.2
209 | PELG | ≤ 0.2
210 | QIDF | ≤ 0.2
211 | DPYY | ≤ 0.2
212 | DMHE | ≤ 0.2
213 | QTPM | ≤ 0.2
214 | CHSG | ≤ 0.2
215 | GFNY | ≤ 0.2
216 | AQRH | ≤ 0.2

Row | Variant | one-hybrid fitness for binding parS DNA
217 | LTKY | ≤ 0.2
218 | GNLV | ≤ 0.2
219 | QQGE | ≤ 0.2
220 | TGVA | ≤ 0.2
221 | HTIT | ≤ 0.2
222 | HPQK | ≤ 0.2
223 | PTQH | ≤ 0.2
224 | KSSP | ≤ 0.2
225 | RMRC | 0.867
226 | LCLG | ≤ 0.2
227 | CAPW | ≤ 0.2
228 | PQST | ≤ 0.2
229 | QTAT | ≤ 0.2
230 | TLKC | ≤ 0.2
231 | DPQS | ≤ 0.2
232 | QRFY | ≤ 0.2
233 | RMEM | 0.309
234 | SFYG | ≤ 0.2
235 | FPPK | ≤ 0.2
236 | TYIP | ≤ 0.2
237 | QHAK | ≤ 0.2
238 | EQHV | ≤ 0.2
239 | TVST | ≤ 0.2
240 | WLFG | ≤ 0.2

Row | Variant | one-hybrid fitness for binding parS DNA
241 | WNIP | ≤ 0.2
242 | SHDL | ≤ 0.2
243 | TMQG | ≤ 0.2
244 | SCPC | ≤ 0.2
245 | KYRK | ≤ 0.2
246 | QLMM | ≤ 0.2
247 | QQMP | ≤ 0.2
248 | SLFR | ≤ 0.2
249 | VAKP | ≤ 0.2
250 | HHPP | ≤ 0.2
251 | SRRM | ≤ 0.2
252 | QLSY | ≤ 0.2
253 | TKTH | ≤ 0.2
254 | RSRL | ≤ 0.2
255 | CCPD | ≤ 0.2
256 | RGSN | 0.218
257 | TQMS | ≤ 0.2
258 | GKMT | ≤ 0.2
259 | MRDG | ≤ 0.2
260 | RKTG | 0.905
261 | NCQT | ≤ 0.2
262 | RTFF | 0.228
263 | RGKF | ≤ 0.2
264 | GINR | ≤ 0.2

Row | Variant | one-hybrid fitness for binding parS DNA
265 | FWKY | ≤ 0.2
266 | ESAR | ≤ 0.2
267 | FTCS | ≤ 0.2
268 | NMKW | ≤ 0.2
269 | QKES | ≤ 0.2
270 | TKRK | ≤ 0.2
271 | WWSR | ≤ 0.2
272 | HRDE | ≤ 0.2
273 | PWKR | ≤ 0.2
274 | TTMA | ≤ 0.2
275 | KKFG | ≤ 0.2
276 | IVGT | ≤ 0.2
277 | MTDN | ≤ 0.2
278 | CTAL | ≤ 0.2
279 | AKMA | ≤ 0.2
280 | HTLH | ≤ 0.2
281 | DQEG | ≤ 0.2
282 | PALV | ≤ 0.2
283 | QHEG | ≤ 0.2
284 | WGRC | ≤ 0.2
285 | EDFV | ≤ 0.2
286 | YSSI | ≤ 0.2
287 | YTSD | ≤ 0.2
288 | REQT | ≤ 0.2

Row | Variant | one-hybrid fitness for binding parS DNA
289 | QKFC | ≤ 0.2
290 | YVLI | ≤ 0.2
291 | PSGC | ≤ 0.2
292 | VYCV | ≤ 0.2
293 | QIWY | ≤ 0.2
294 | YSTG | ≤ 0.2
295 | SRGG | ≤ 0.2
296 | WGIG | ≤ 0.2
297 | RHGY | 0.429
298 | QRES | ≤ 0.2
299 | CYHT | ≤ 0.2
300 | STSG | ≤ 0.2
301 | NRIR | ≤ 0.2
302 | PEER | ≤ 0.2
303 | ICSR | ≤ 0.2
304 | SDIM | ≤ 0.2
305 | FHRK | ≤ 0.2
306 | LDSD | ≤ 0.2
